Experimental data reported in publication PMC5700166.
This is a selection; strong and weak results do not stand in their true shares. The list includes weakly bound sequences.

target: T1, GST-Nv-NF-kB (Cys allele) (UniProt E5G601); test: protein-binding microarray (PBM); conditions: PBM: ~300 nM protein, 6 mM HEPES pH 7.8, 80 mM KCl, 0.5 mM EDTA, 0.5 mM EGTA, 6% glycerol, 35 ng/ul poly-dIdC, 1% milk, 1 h, room temperature; high values mean tight binding; double strand, one strand shown
T1 sequence: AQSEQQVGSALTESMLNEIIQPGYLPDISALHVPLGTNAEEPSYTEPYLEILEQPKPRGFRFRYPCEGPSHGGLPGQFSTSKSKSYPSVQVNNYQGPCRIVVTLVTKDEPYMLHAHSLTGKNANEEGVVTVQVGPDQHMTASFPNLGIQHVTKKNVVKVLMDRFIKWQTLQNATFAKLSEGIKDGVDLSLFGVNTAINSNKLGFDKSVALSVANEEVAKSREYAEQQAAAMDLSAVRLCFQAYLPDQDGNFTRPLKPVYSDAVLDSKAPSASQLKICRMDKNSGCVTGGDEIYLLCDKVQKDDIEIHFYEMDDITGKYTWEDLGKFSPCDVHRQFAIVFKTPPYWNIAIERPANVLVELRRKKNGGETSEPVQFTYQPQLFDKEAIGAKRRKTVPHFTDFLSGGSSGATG

Row | Sequence | binding signal [z-score]
1 | CCGATTAACATCACCCGGGAAAATGATGTTAATCGGGTCTTGATTCGCTTGACGCTGCTG | 3.28
2 | CCGATTAACATCAAAGAATTCCCTGATGTTAATCGGGTCTTGATTCGCTTGACGCTGCTG | 7.26
3 | CCGATTAACATCAGAGAAACCCCTGATGTTAATCGGGTCTTGATTCGCTTGACGCTGCTG | 4.86
4 | CCGATTAACATCAAGTTTCCCCATGATGTTAATCGGGTCTTGATTCGCTTGACGCTGCTG | 6.87
5 | CCGATTAACATCAGGAGATCCCATGATGTTAATCGGGTCTTGATTCGCTTGACGCTGCTG | 0.935
6 | CCGATTAACATCAGATCTCCCCCTGATGTTAATCGGGTCTTGATTCGCTTGACGCTGCTG | 5.31
7 | CCGATTAACATCAGGGAGCCCCCTGATGTTAATCGGGTCTTGATTCGCTTGACGCTGCTG | 4.79
8 | CCGATTAACATCAAAAACTCCCATGATGTTAATCGGGTCTTGATTCGCTTGACGCTGCTG | 5.15
9 | CCGATTAACATCACGGTAATCCCTGATGTTAATCGGGTCTTGATTCGCTTGACGCTGCTG | 1.91
10 | CCGATTAACATCAGGGACACCCCTGATGTTAATCGGGTCTTGATTCGCTTGACGCTGCTG | 4.44
11 | CCGATTAACATCAGGGCATTCCATGATGTTAATCGGGTCTTGATTCGCTTGACGCTGCTG | 0.863
12 | CCGATTAACATCAGGGACTTCTATGATGTTAATCGGGTCTTGATTCGCTTGACGCTGCTG | 6.35
13 | CCGATTAACATCACCCAGGGAAATGATGTTAATCGGGTCTTGATTCGCTTGACGCTGCTG | 2.66
14 | CCGATTAACATCAGGGTTTTCCATGATGTTAATCGGGTCTTGATTCGCTTGACGCTGCTG | 2.18
15 | CCGATTAACATCAATATTCCCCATGATGTTAATCGGGTCTTGATTCGCTTGACGCTGCTG | 8.39
16 | CCGATTAACATCAGGAATGCCCCTGATGTTAATCGGGTCTTGATTCGCTTGACGCTGCTG | 6.58
17 | CCGATTAACATCACCCAACCCCCTGATGTTAATCGGGTCTTGATTCGCTTGACGCTGCTG | 2.94
18 | CCGATTAACATCAAATATTTCCCTGATGTTAATCGGGTCTTGATTCGCTTGACGCTGCTG | 6.57
19 | CCGATTAACATCACGGTAATTCCTGATGTTAATCGGGTCTTGATTCGCTTGACGCTGCTG | 2.05
20 | CCGATTAACATCAGGAATGCCCATGATGTTAATCGGGTCTTGATTCGCTTGACGCTGCTG | -0.129
21 | CCGATTAACATCAGGGGAGTATATGATGTTAATCGGGTCTTGATTCGCTTGACGCTGCTG | 3.81
22 | CCGATTAACATCAGGGGAATGTATGATGTTAATCGGGTCTTGATTCGCTTGACGCTGCTG | 7.74
23 | CCGATTAACATCAACTTTCCCCCTGATGTTAATCGGGTCTTGATTCGCTTGACGCTGCTG | 7.45
24 | CCGATTAACATCAAGGGATCCCCTGATGTTAATCGGGTCTTGATTCGCTTGACGCTGCTG | 5.8
25 | CCGATTAACATCAAATGGGAATTTGATGTTAATCGGGTCTTGATTCGCTTGACGCTGCTG | 4.5
26 | CCGATTAACATCACCCCAGCCCCTGATGTTAATCGGGTCTTGATTCGCTTGACGCTGCTG | 1.93

target: T2, GST-Co-NF-kB (UniProt F1ARL5); test: protein-binding microarray (PBM); conditions: PBM: ~300 nM protein, 6 mM HEPES pH 7.8, 80 mM KCl, 0.5 mM EDTA, 0.5 mM EGTA, 6% glycerol, 35 ng/ul poly-dIdC, 1% milk, 1 h, room temperature; Ap Aiptasia and Nv Nematostella (sea anemones) / Co Capsaspora / Aq Amphimedon (sponge) / Dm Drosophila / Hu human; RHD is the Rel homology domain; high values mean tight binding; most listed sequences are background and not binding sites; double strand, one strand shown
T2 sequence: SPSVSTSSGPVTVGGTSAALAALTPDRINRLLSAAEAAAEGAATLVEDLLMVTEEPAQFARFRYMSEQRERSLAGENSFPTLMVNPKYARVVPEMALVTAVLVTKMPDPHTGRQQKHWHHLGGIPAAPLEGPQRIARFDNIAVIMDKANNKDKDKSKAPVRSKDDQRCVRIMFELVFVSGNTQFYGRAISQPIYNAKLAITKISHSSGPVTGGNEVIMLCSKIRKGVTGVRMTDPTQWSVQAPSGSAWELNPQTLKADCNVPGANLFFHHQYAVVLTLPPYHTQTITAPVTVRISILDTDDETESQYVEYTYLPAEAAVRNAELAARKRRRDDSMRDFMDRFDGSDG

Row | Sequence | binding signal [z-score]
27 | CCGATTAACATCAGGCTTTCCCATGATGTTAATCGGGTCTTGATTCGCTTGACGCTGCTG | 2.07
28 | CCGATTAACATCAATACTCCCCCTGATGTTAATCGGGTCTTGATTCGCTTGACGCTGCTG | 8.03
29 | CCGATTAACATCAGGGGAACACCTGATGTTAATCGGGTCTTGATTCGCTTGACGCTGCTG | 5.77
30 | CCGATTAACATCAATGTCCCCCCTGATGTTAATCGGGTCTTGATTCGCTTGACGCTGCTG | 8.35
31 | CCGATTAACATCAGGGGAAAAAATGATGTTAATCGGGTCTTGATTCGCTTGACGCTGCTG | 11.1
32 | CCGATTAACATCAAGGAAAGCCCTGATGTTAATCGGGTCTTGATTCGCTTGACGCTGCTG | -0.195
33 | CCGATTAACATCAAAAATTCCCTTGATGTTAATCGGGTCTTGATTCGCTTGACGCTGCTG | 4.19
34 | CCGATTAACATCAAGGAAAACCCTGATGTTAATCGGGTCTTGATTCGCTTGACGCTGCTG | 0.769
35 | CCGATTAACATCAAAAACTTCCCTGATGTTAATCGGGTCTTGATTCGCTTGACGCTGCTG | 3.89
36 | CCGATTAACATCAGGGGGGTTACTGATGTTAATCGGGTCTTGATTCGCTTGACGCTGCTG | 4.24
37 | CCGATTAACATCAGGAGGTCCCCTGATGTTAATCGGGTCTTGATTCGCTTGACGCTGCTG | 1.57
38 | CCGATTAACATCAGGAAAGACCCTGATGTTAATCGGGTCTTGATTCGCTTGACGCTGCTG | -1.06
39 | CCGATTAACATCAGGGATTTTGATGATGTTAATCGGGTCTTGATTCGCTTGACGCTGCTG | 0.653
40 | CCGATTAACATCACGGGCACCCCTGATGTTAATCGGGTCTTGATTCGCTTGACGCTGCTG | 1.34
41 | CCGATTAACATCACCCGGGAAAATGATGTTAATCGGGTCTTGATTCGCTTGACGCTGCTG | 5.18
42 | CCGATTAACATCAAAGAATTCCCTGATGTTAATCGGGTCTTGATTCGCTTGACGCTGCTG | 4.52
43 | CCGATTAACATCAGAGAAACCCCTGATGTTAATCGGGTCTTGATTCGCTTGACGCTGCTG | 0.79
44 | CCGATTAACATCAAGTTTCCCCATGATGTTAATCGGGTCTTGATTCGCTTGACGCTGCTG | 9.1
45 | CCGATTAACATCAGGAGATCCCATGATGTTAATCGGGTCTTGATTCGCTTGACGCTGCTG | 0.376
46 | CCGATTAACATCAGATCTCCCCCTGATGTTAATCGGGTCTTGATTCGCTTGACGCTGCTG | 8.07

Row | Sequence | binding signal [z-score]
47 | CCGATTAACATCAGGGAGCCCCCTGATGTTAATCGGGTCTTGATTCGCTTGACGCTGCTG | 2.5
48 | CCGATTAACATCAAAAACTCCCATGATGTTAATCGGGTCTTGATTCGCTTGACGCTGCTG | 2.58
49 | CCGATTAACATCACGGTAATCCCTGATGTTAATCGGGTCTTGATTCGCTTGACGCTGCTG | 0.958
50 | CCGATTAACATCAGGGACACCCCTGATGTTAATCGGGTCTTGATTCGCTTGACGCTGCTG | 3.39
51 | CCGATTAACATCAGGGCATTCCATGATGTTAATCGGGTCTTGATTCGCTTGACGCTGCTG | 0.593
52 | CCGATTAACATCAGGGACTTCTATGATGTTAATCGGGTCTTGATTCGCTTGACGCTGCTG | 0.975
53 | CCGATTAACATCACCCAGGGAAATGATGTTAATCGGGTCTTGATTCGCTTGACGCTGCTG | 2.73
54 | CCGATTAACATCAGGGTTTTCCATGATGTTAATCGGGTCTTGATTCGCTTGACGCTGCTG | -0.185
55 | CCGATTAACATCAATATTCCCCATGATGTTAATCGGGTCTTGATTCGCTTGACGCTGCTG | 8.46
56 | CCGATTAACATCAGGAATGCCCCTGATGTTAATCGGGTCTTGATTCGCTTGACGCTGCTG | 1.64
57 | CCGATTAACATCACCCAACCCCCTGATGTTAATCGGGTCTTGATTCGCTTGACGCTGCTG | 2.21
58 | CCGATTAACATCAAATATTTCCCTGATGTTAATCGGGTCTTGATTCGCTTGACGCTGCTG | 5.89
59 | CCGATTAACATCACGGTAATTCCTGATGTTAATCGGGTCTTGATTCGCTTGACGCTGCTG | 0.274
60 | CCGATTAACATCAGGAATGCCCATGATGTTAATCGGGTCTTGATTCGCTTGACGCTGCTG | 0.0557
61 | CCGATTAACATCAGGGGAGTATATGATGTTAATCGGGTCTTGATTCGCTTGACGCTGCTG | 4.7
62 | CCGATTAACATCAGGGGAATGTATGATGTTAATCGGGTCTTGATTCGCTTGACGCTGCTG | 6.26
63 | CCGATTAACATCAACTTTCCCCCTGATGTTAATCGGGTCTTGATTCGCTTGACGCTGCTG | 9.36
64 | CCGATTAACATCAAGGGATCCCCTGATGTTAATCGGGTCTTGATTCGCTTGACGCTGCTG | 4.18
65 | CCGATTAACATCAAATGGGAATTTGATGTTAATCGGGTCTTGATTCGCTTGACGCTGCTG | 1.12
66 | CCGATTAACATCACCCCAGCCCCTGATGTTAATCGGGTCTTGATTCGCTTGACGCTGCTG | 2.88
